# Over roughly 2,900 compounds, “IRF Lucia reporter activity, fold change vs agonist alone” has its median near 0.9; the highest 2% begin near 2.8. The list shows a part of the results.
# Assays:
# [1] = test system: RAW-Dual; assay: IRF Lucia reporter activity, fold change vs agonist alone; higher = enhanced IRF activity; conditions: cytotoxicity flag (confluency mask): not cytotoxic, agonist: MPLA (TLR4) […]
# How it was run: (§1)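 After 50 nL of library stock was delivered by pin tool to RAW-Dual macrophages (50,000 cells/well, DMEM, 384-well plates), a PRR agonist was added 1 h later and the plates were kept at 37 °C, 5% CO2. Twenty hours later, IRF was read from supernatant by QuantiLuc luminescence and NF-κB by QuantiBlue absorbance at 620 nm. Reporter activity is stated as fold change over agonist-alone wells. Wells with IncuCyte confluency under 70% of agonist controls in both mask sets were counted as cytotoxic.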
# [2] = test system: RAW-Dual; assay: IRF Lucia reporter activity, fold change vs agonist alone; cytotoxicity flag (confluency mask): not cytotoxic; higher = enhanced IRF activity
# How it was run: as §1
# [3] = library stock concentration (final ~1000-fold dilution): 10 mM
# [4] = agonist: 3'3'-cGAMP (STING) 10 ug/mL
compound,measurement,setting,value
CNCC(O)C(O)C(O)C(O)CO.Cc1c(Nc2ncccc2C(=O)O)cccc1C(F)(F)F,IRF Lucia reporter activity,[1]; [3],0.964
CNCC(O)C(O)C(O)C(O)CO.Cc1c(Nc2ncccc2C(=O)O)cccc1C(F)(F)F (library stock concentration (final ~1000-fold dilution): 10 mM),IRF Lucia reporter activity,[2]; [4],0.986
same,IRF Lucia reporter activity,[2]; agonist: LPS (TLR4) 0.1 ug/mL,1.05
CC(C)NCC(O)COc1ccc(CCOCC2CC2)cc1.Cl (stereo unspecified),IRF Lucia reporter activity,[1]; [3],0.75
CC(C)NCC(O)COc1ccc(CCOCC2CC2)cc1.Cl (stereo unspecified) (library stock concentration (final ~1000-fold dilution): 10 mM),IRF Lucia reporter activity,[2]; [4],0.997
same,IRF Lucia reporter activity,[2]; agonist: LPS (TLR4) 0.1 ug/mL,0.947
C=CC(=O)N1CCC(C2CCNc3c(C(N)=O)c(-c4ccc(Oc5ccccc5)cc4)nn32)CC1 (stereo unspecified) (library stock concentration (final ~1000-fold dilution): 10 mM),IRF Lucia reporter activity,[2]; [4],0.563
same,IRF Lucia reporter activity,[2]; agonist: LPS (TLR4) 0.1 ug/mL,0.593
CC(C)N(CCC(c1ccccc1)c1cc(CO)ccc1O)C(C)C (stereo unspecified),IRF Lucia reporter activity,[1]; [3],0.986
CC(C)N(CCC(c1ccccc1)c1cc(CO)ccc1O)C(C)C (stereo unspecified) (library stock concentration (final ~1000-fold dilution): 10 mM),IRF Lucia reporter activity,[2]; [4],0.857
same,IRF Lucia reporter activity,[2]; agonist: LPS (TLR4) 0.1 ug/mL,0.982
Cc1[nH]c2ccccc2c1CCNC(=O)c1cccs1,IRF Lucia reporter activity,[1]; [3],1.07
Cc1[nH]c2ccccc2c1CCNC(=O)c1cccs1 (library stock concentration (final ~1000-fold dilution): 10 mM),IRF Lucia reporter activity,[2]; [4],1.02
same,IRF Lucia reporter activity,[2]; agonist: LPS (TLR4) 0.1 ug/mL,0.989
COc1ccc(/C=C/C(=O)O)cc1OC (library stock concentration (final ~1000-fold dilution): 10 mM),IRF Lucia reporter activity,[2]; [4],0.933
same,IRF Lucia reporter activity,[2]; agonist: LPS (TLR4) 0.1 ug/mL,0.935
CC12CC3CC(C)(C1)CC(N)(C3)C2.Cl (library stock concentration (final ~1000-fold dilution): 10 mM),IRF Lucia reporter activity,[2]; [4],1.24
same,IRF Lucia reporter activity,[2]; agonist: LPS (TLR4) 0.1 ug/mL,1.01
CC12CC3CC(C)(C1)CC(N)(C3)C2.Cl,IRF Lucia reporter activity,[1]; [3],1.17
Cc1nc2ccc(-n3ncc(C(=O)c4cc5ccccc5[nH]4)c3N)cc2[nH]1 (library stock concentration (final ~1000-fold dilution): 10 mM),IRF Lucia reporter activity,[2]; [4],0.0669
same,IRF Lucia reporter activity,[2]; agonist: LPS (TLR4) 0.1 ug/mL,0.752
COc1cc(C2CC(c3ccccc3)=NN2C(N)=S)cc(OC)c1OC (stereo unspecified) (library stock concentration (final ~1000-fold dilution): 10 mM),IRF Lucia reporter activity,[2]; [4],0.274
same,IRF Lucia reporter activity,[2]; agonist: LPS (TLR4) 0.1 ug/mL,0.807
Cn1cnc(-c2cc3nccc(Oc4ccc(NC(=S)NC(=O)Cc5ccccc5)cc4F)c3s2)c1 (library stock concentration (final ~1000-fold dilution): 10 mM),IRF Lucia reporter activity,[2]; [4],0.257
same,IRF Lucia reporter activity,[2]; agonist: LPS (TLR4) 0.1 ug/mL,0.579
Cn1cnc(-c2cc3nccc(Oc4ccc(NC(=S)NC(=O)Cc5ccccc5)cc4F)c3s2)c1,IRF Lucia reporter activity,[1]; [3],0.567
Cl.Cl.c1cc(-c2cnn3cc(-c4ccc(OCCN5CCCCC5)cc4)cnc23)ccn1,IRF Lucia reporter activity,[1]; library stock concentration (final ~1000-fold dilution): 10 mM water,1.03
Cl.Cl.c1cc(-c2cnn3cc(-c4ccc(OCCN5CCCCC5)cc4)cnc23)ccn1 (library stock concentration (final ~1000-fold dilution): 10 mM water),IRF Lucia reporter activity,[2]; [4],0.04
same,IRF Lucia reporter activity,[2]; agonist: LPS (TLR4) 0.1 ug/mL,0.171
CCC(=O)N1CCN(c2ccc(-n3c(=O)ccc4cnc5ccc(-c6cnc7ccccc7c6)cc5c43)cc2C(F)(F)F)CC1 (library stock concentration (final ~1000-fold dilution): 2 mM),IRF Lucia reporter activity,[2]; [4],0.336
same,IRF Lucia reporter activity,[2]; agonist: LPS (TLR4) 0.1 ug/mL,0.385
CCC(=O)N1CCN(c2ccc(-n3c(=O)ccc4cnc5ccc(-c6cnc7ccccc7c6)cc5c43)cc2C(F)(F)F)CC1,IRF Lucia reporter activity,[1]; library stock concentration (final ~1000-fold dilution): 2 mM,1.07
CCNC1(C(N)=O)CCN(c2ncnc3c2nc(-c2ccccc2Cl)n3-c2ccc(Cl)cc2)CC1.Cl (library stock concentration (final ~1000-fold dilution): 2 mM),IRF Lucia reporter activity,[2]; [4],0.911
same,IRF Lucia reporter activity,[2]; agonist: LPS (TLR4) 0.1 ug/mL,0.725
CC(C)NCC(O)COc1ccc(COCCOC(C)C)cc1.O=C(O)/C=C/C(=O)O (stereo unspecified),IRF Lucia reporter activity,[1]; [3],0.981
CC(C)NCC(O)COc1ccc(COCCOC(C)C)cc1.O=C(O)/C=C/C(=O)O (stereo unspecified) (library stock concentration (final ~1000-fold dilution): 10 mM),IRF Lucia reporter activity,[2]; [4],1.04
same,IRF Lucia reporter activity,[2]; agonist: LPS (TLR4) 0.1 ug/mL,1.21
O=C(Nc1ccccc1)c1cc([N+](=O)[O-])ccc1Cl (library stock concentration (final ~1000-fold dilution): 10 mM),IRF Lucia reporter activity,[2]; [4],0.829
same,IRF Lucia reporter activity,[2]; agonist: LPS (TLR4) 0.1 ug/mL,1.44
O=C(Nc1ccccc1)c1cc([N+](=O)[O-])ccc1Cl,IRF Lucia reporter activity,[1]; [3],1.51
Cc1onc(-c2ccccc2)c1-c1ccc(S(N)(=O)=O)cc1,IRF Lucia reporter activity,[1]; [3],1.37
Cc1onc(-c2ccccc2)c1-c1ccc(S(N)(=O)=O)cc1 (library stock concentration (final ~1000-fold dilution): 10 mM),IRF Lucia reporter activity,[2]; [4],1.31
same,IRF Lucia reporter activity,[2]; agonist: LPS (TLR4) 0.1 ug/mL,1.17
CC1=C(CC(=O)O)c2cc(F)ccc2/C1=C\c1ccc(S(C)=O)cc1 (stereo unspecified),IRF Lucia reporter activity,[1]; [3],0.909
CC1=C(CC(=O)O)c2cc(F)ccc2/C1=C\c1ccc(S(C)=O)cc1 (stereo unspecified) (library stock concentration (final ~1000-fold dilution): 10 mM),IRF Lucia reporter activity,[2]; [4],0.948
same,IRF Lucia reporter activity,[2]; agonist: LPS (TLR4) 0.1 ug/mL,0.822
